# Over roughly 33,000 sequences, “E-score (-0.5 to 0.5)” has its median near -0.043; the highest 2% begin near 0.37. Some of the results follow.
# Target: T1, Upc2 (UniProt Q12151)
# T1 sequence: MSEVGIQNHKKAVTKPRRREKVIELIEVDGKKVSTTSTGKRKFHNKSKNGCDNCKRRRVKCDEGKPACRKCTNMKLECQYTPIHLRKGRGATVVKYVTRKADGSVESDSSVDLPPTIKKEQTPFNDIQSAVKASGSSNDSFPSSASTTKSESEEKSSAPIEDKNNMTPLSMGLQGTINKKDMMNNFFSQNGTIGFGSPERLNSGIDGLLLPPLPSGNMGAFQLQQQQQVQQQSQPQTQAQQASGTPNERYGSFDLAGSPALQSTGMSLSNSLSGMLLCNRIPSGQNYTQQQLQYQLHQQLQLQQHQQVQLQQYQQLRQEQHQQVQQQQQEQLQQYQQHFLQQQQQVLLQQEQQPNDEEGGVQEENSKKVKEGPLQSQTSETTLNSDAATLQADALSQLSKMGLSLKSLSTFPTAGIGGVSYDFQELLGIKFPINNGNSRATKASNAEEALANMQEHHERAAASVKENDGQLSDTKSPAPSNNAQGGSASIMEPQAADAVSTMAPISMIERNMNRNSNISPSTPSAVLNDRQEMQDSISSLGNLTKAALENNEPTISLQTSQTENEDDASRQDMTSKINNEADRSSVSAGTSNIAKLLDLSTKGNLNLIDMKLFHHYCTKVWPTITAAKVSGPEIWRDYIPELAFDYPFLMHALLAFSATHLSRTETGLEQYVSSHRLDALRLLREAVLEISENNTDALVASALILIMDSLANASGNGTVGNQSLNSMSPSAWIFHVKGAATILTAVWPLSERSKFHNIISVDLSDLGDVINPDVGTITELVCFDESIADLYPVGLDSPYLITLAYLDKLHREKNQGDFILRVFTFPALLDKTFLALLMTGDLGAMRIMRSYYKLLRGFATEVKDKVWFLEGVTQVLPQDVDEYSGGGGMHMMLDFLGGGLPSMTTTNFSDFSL
# Experiment: PBM E-score (8-mer binding enrichment) (E-score (-0.5 to 0.5)); higher = stronger / more preferred TF binding; most listed sequences are background and not binding sites
# Conditions: protein concentration: 200 nM; construct: GST-full length
# Method: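 Universal 'all 10-mer' protein binding microarrays (Agilent AMADID 015681) probed with GST-tagged S. cerevisiae TFs (full-length or DBD) made by in vitro transcription/translation (PURExpress), about 100-200 nM. Bound TF was detected with fluorescent anti-GST. Each ungapped 8-mer (which stands for itself and its reverse complement) is scored by the PBM enrichment score (E-score), a modified Wilcoxon-Mann-Whitney statistic from -0.5 to +0.5, computed with the Universal PBM Analysis Suite. Scale: above 0.35 generally sequence-specific binding.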
row,Sequence,PBM E-score
1,AGCCGGAC,0.00819
2,GGGGAGAA,-0.0119
3,CGCCCCCC,-0.298
4,ATTCCCTC,-0.159
5,AAGCGGGT,0.0067
6,CCTTAAGA,-0.0783
7,GAACAGAA,-0.163
8,GTAAAGTA,0.161
9,CAAGTGTC,-0.212
10,AACCAGAG,-0.00548
11,CCAATGTA,-0.086
12,GCACGACC,-0.2
13,AGTTGGAT,-0.0828
14,CGACATAC,0.244
15,GCAGGATA,-0.236
16,AGTTACAC,0.0388
17,GACGGCAC,-0.0495
18,ATATAGAG,-0.282
19,ACCTCCTA,-0.284
20,CAGAATCG,0.195
21,AACTATAT,0.0597
22,AGTAGCTG,-0.217
23,CGTGCTAG,0.0592
24,GAGGCGTA,0.193
25,CGTGTCAA,-0.29

row,Sequence,PBM E-score
1,CAGTCCCG,-0.0231
2,GCGATTAA,0.103
3,TCAGACCA,-0.131
4,GAACTAAA,0.0965
5,AGCTTGAA,-0.00977
6,ATCATCTG,-0.129
7,AAGATTTC,-0.00074
8,ACCATTTG,-0.00656
9,CCTTTCAG,-0.0663
10,GGAGCGCA,-0.173
11,CAAGTTAC,0.0669
12,CCTTATGA,-0.0741
13,CGAGGAAG,0.107
14,AGTGCGTA,0.242
15,GAAGGATC,-0.0638
16,ACCACGTA,0.198
17,CGTGAGCA,-0.033
18,CAATACCG,-0.0438
19,ACTTCTCA,-0.0354
20,GACAGTGC,0.038
21,CGCTTCCA,-0.0947
22,GTTTGGAA,0.238
23,ATTTTACC,0.00835
24,GGACAGAC,-0.209
25,CGCGACAC,0.013

row,Sequence,PBM E-score
1,ATAGGCGG,-0.0532
2,AAATGCGG,0.0321
3,CACCACCA,-0.165
4,CCTTAACG,0.38
5,ACATGCGT,-0.0249
6,ACAATGTG,-0.00829
7,GTTTGAAA,0.182
8,CGCTTACC,0.301
9,GCCACATA,-0.153
10,CTTTGCGC,0.0115
11,CATTTCGC,0.16
12,ATCAAGCG,-0.0631
13,AAAATGAA,-0.0379
14,CGACGGAC,0.101
15,GATGTGTA,0.0809
16,CCATTGGA,-0.223
17,GTTACTCA,0.11
18,CTTGCGCA,-0.0291
19,CCGACGGC,0.0853
20,CGTGATGC,-0.18
21,CGGGATGC,-0.0618
22,GCGCATTA,0.0866
23,AGATCTTA,0.0589
24,CTACACAC,-0.0342
25,AATAAGCG,0.115

row,Sequence,PBM E-score
1,CCCGTAGC,0.0891
2,CAACGTTA,0.0939
3,GACGGGGC,-0.113
4,AATTCACA,-0.0315
5,GTATTCCA,0.0694
6,CGAAGTGC,0.161
7,CCTAGGCG,-0.162
8,TTACTAAA,0.196
9,GGGGGCCA,-0.166
10,ATTACTAA,0.00226
11,ACCCATTC,-0.105
12,ATACTATG,-0.0405
13,ACATGCTG,0.0413
14,ATAATGGA,-0.128
15,ACACAACC,-0.0135
16,GTCAGAAA,-0.0771
17,CATGATTC,-0.195
18,AATAAAAC,0.0783
19,GGCAAGTA,-0.213
20,CGTGCAGC,-0.14
21,AACATATA,0.0905
22,AGGGCTGG,-0.235
23,CTAAGTTC,-0.0418
24,GACCCGTC,0.0413
25,CGGGGGGA,-0.202

row,Sequence,PBM E-score
1,CATTTGGA,-0.209
2,AGAGTTCA,-0.208
3,CACCGACC,-0.0762
4,CAAGCAAG,-0.208
5,AATGTTAA,-0.175
6,AGACCGCA,-0.191
7,ACTGCGAT,-0.199
8,GGAGATCC,-0.24
9,AATGTCTA,-0.127
10,TTGCAAAA,0.0548
11,ATTACCGC,0.0457
12,GTCACTAA,0.0743
13,AGGCGCGA,0.0335
14,GCTTCCCC,-0.156
15,ATCAACCC,0.112
16,TCAAGGGA,-0.267
17,AGCTCCAA,-0.184
18,CCTGGCAA,-0.125
19,GGCCTCGA,-0.233
20,CAAAAAGA,-0.0467
21,CGTTAGGC,0.0828
22,ACCCAGAG,-0.0786
23,CTACGACA,0.311
24,CCCGCCAG,0.0836
25,CTCGGAGC,0.0127

row,Sequence,PBM E-score
1,AACCTACT,-0.113
2,CATTTCCG,-0.022
3,AAGGGTGC,-0.238
4,TAGTCTCA,0.0124
5,ACCCCACA,-0.121
6,ACCGCCGT,0.213
7,GCGTAGCA,0.109
8,TAACCCTA,-0.158
9,CTAAGTAG,-0.183
10,AGTACCGG,-0.228
11,AGAATACC,-0.0185
12,GACCGGGC,-0.0541
13,CGAGACTC,0.163
14,GAGGTCGC,-0.042
15,TAGTTTAA,0.18
16,CATGCATG,-0.288
17,AGTGGCCA,-0.135
18,AACTCATT,-0.165
19,CTGTAGCC,-0.116
20,AAGCTTCC,-0.176
21,GGGCAGGA,-0.295
22,ATTATGTC,0.0356
23,TGTAGCAA,-0.142
24,GCTCACCA,-0.271
25,AATTACCA,-0.098

row,Sequence,PBM E-score
1,CGCTTACA,0.178
2,GCCCATAA,-0.0969
3,GAATCGAC,0.00593
4,CTAACCTA,-0.0682
5,GAGACTGA,-0.216
6,GGGACGTA,0.147
7,AAAAGTGT,-0.0765
8,GCTCCCCA,-0.0976
9,CTTGGGCA,-0.25
10,ACCCTGCA,-0.0278
11,CAACATGG,-0.119
12,ATGGCACG,-0.226
13,AACGATTA,0.364
14,ATCGGCGA,-0.0837
15,ATACGTAT,0.372
16,ATAGATTC,-0.12
17,ACTGACAT,-0.168
18,CCTCTAAC,0.0275
19,GGCTAAAA,-0.236
20,AGACGAGA,0.184
21,ATAGATCC,-0.0535
22,ATTTTACG,0.394
